# Data as given in the supplement of paper PMC10037445.
# Over roughly 2,900 compounds, “IRF Lucia reporter activity, fold change vs agonist alone” has its median near 0.9; the highest 2% begin near 2.8. The list shows a part of the results.
# Columns and labels:
# [1] = test system: RAW-Dual; test: IRF Lucia reporter activity, fold change vs agonist alone; cytotoxicity flag (confluency mask): not cytotoxic; higher = enhanced IRF activity
# Outline: (§1)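 Library stock was pin-tooled at 50 nL into 384-well plates of RAW-Dual macrophages (50,000 cells/well, DMEM), followed 1 h later by a PRR agonist, and the cells were kept at 37 °C, 5% CO2. Supernatant collected after 20 hours was read for IRF by QuantiLuc luminescence and for NF-κB by QuantiBlue absorbance at 620 nm. Reporter activity is fold change over agonist-alone wells, and a well counted as cytotoxic when its IncuCyte confluency was below 70% of agonist controls in both mask sets.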
# [2] = test system: RAW-Dual; test: IRF Lucia reporter activity, fold change vs agonist alone; higher = enhanced IRF activity; conditions: agonist: MPLA (TLR4) […]
# Outline: as §1
# [3] = test system: RAW-Dual; test: IRF Lucia reporter activity, fold change vs agonist alone; cytotoxicity flag (confluency mask): cytotoxic (confluency <70% of control); higher = enhanced IRF activity
# Outline: as §1
# [4] = agonist: 3'3'-cGAMP (STING) 10 ug/mL
# [5] = library stock concentration (final ~1000-fold dilution): 10 mM, cytotoxicity flag (confluency mask): not cytotoxic
# [6] = library stock concentration (final ~1000-fold dilution): 10 mM, cytotoxicity flag (confluency mask): cytotoxic (confluency <70% of control)
compound,measurement,setting,value
CC1CCOC2Cn3cc(C(=O)NCc4ccc(F)cc4F)c(=O)c(O)c3C(=O)N12 (stereo not given) (library stock concentration (final ~1000-fold dilution): 2 mM),IRF Lucia reporter activity,[1]; [4],1.08
same,IRF Lucia reporter activity,[1]; agonist: LPS (TLR4) 0.1 ug/mL,1.17
CC1CCOC2Cn3cc(C(=O)NCc4ccc(F)cc4F)c(=O)c(O)c3C(=O)N12 (stereo not given),IRF Lucia reporter activity,"[2]; library stock concentration (final ~1000-fold dilution): 2 mM, cytotoxicity flag (confluency mask): not cytotoxic",1.2
same,IRF Lucia reporter activity,[2]; [5],1.3
CN1CCC(c2c(O)cc(O)c3c(=O)cc(-c4ccccc4Cl)oc23)C(O)C1 (stereo not given) (library stock concentration (final ~1000-fold dilution): 10 mM),IRF Lucia reporter activity,[3]; [4],0.0133
same,IRF Lucia reporter activity,[3]; agonist: LPS (TLR4) 0.1 ug/mL,0.0234
CN1CCC(c2c(O)cc(O)c3c(=O)cc(-c4ccccc4Cl)oc23)C(O)C1 (stereo not given),IRF Lucia reporter activity,[2]; [6],0.0203
C#CCN(C)Cc1ccccc1.Cl (library stock concentration (final ~1000-fold dilution): 10 mM),IRF Lucia reporter activity,[1]; [4],1
same,IRF Lucia reporter activity,[1]; agonist: LPS (TLR4) 0.1 ug/mL,1.2
C#CCN(C)Cc1ccccc1.Cl,IRF Lucia reporter activity,[2]; [5],1.02
Cl.O=S(=O)(c1cccc2c(I)cccc12)N1CCCNCC1 (library stock concentration (final ~1000-fold dilution): 10 mM),IRF Lucia reporter activity,[1]; [4],0.226
same,IRF Lucia reporter activity,[1]; agonist: LPS (TLR4) 0.1 ug/mL,1.09
Cc1ccnc2c1NC(=O)c1cccnc1N2C1CC1 (library stock concentration (final ~1000-fold dilution): 10 mM),IRF Lucia reporter activity,[1]; [4],0.975
same,IRF Lucia reporter activity,[1]; agonist: LPS (TLR4) 0.1 ug/mL,1.1
Cc1ccnc2c1NC(=O)c1cccnc1N2C1CC1,IRF Lucia reporter activity,[2]; [5],0.79
Cc1[nH]c(=O)c(C#N)cc1-c1ccncc1,IRF Lucia reporter activity,[2]; [5],0.978
Cc1[nH]c(=O)c(C#N)cc1-c1ccncc1 (library stock concentration (final ~1000-fold dilution): 10 mM),IRF Lucia reporter activity,[1]; [4],0.993
same,IRF Lucia reporter activity,[1]; agonist: LPS (TLR4) 0.1 ug/mL,0.966
CS(=O)(=O)c1ccc(C2=C(c3ccccc3)C(=O)OC2)cc1,IRF Lucia reporter activity,[2]; [5],0.958
CS(=O)(=O)c1ccc(C2=C(c3ccccc3)C(=O)OC2)cc1 (library stock concentration (final ~1000-fold dilution): 10 mM),IRF Lucia reporter activity,[1]; [4],1.07
same,IRF Lucia reporter activity,[1]; agonist: LPS (TLR4) 0.1 ug/mL,0.987
CO/N=C(\C(=O)NC1C(=O)N2C(C(=O)O)=C(CSc3nnnn3C)CSC12)c1csc(N)n1.CO/N=C(\C(=O)NC1C(=O)N2C(C(=O)O)=C(CSc3nnnn3C)CSC12)c1csc(N)n1.Cl (stereo not given) (library stock concentration (final ~1000-fold dilution): 10 mM),IRF Lucia reporter activity,[1]; [4],0.983
same,IRF Lucia reporter activity,[1]; agonist: LPS (TLR4) 0.1 ug/mL,1.36
CO/N=C(\C(=O)NC1C(=O)N2C(C(=O)O)=C(CSc3nnnn3C)CSC12)c1csc(N)n1.CO/N=C(\C(=O)NC1C(=O)N2C(C(=O)O)=C(CSc3nnnn3C)CSC12)c1csc(N)n1.Cl (stereo not given),IRF Lucia reporter activity,[2]; [5],1.03
CC(=O)c1cc([N+](=O)[O-])c(Sc2cccc(Cl)c2Cl)s1,IRF Lucia reporter activity,[2]; [5],1.03
CC(=O)c1cc([N+](=O)[O-])c(Sc2cccc(Cl)c2Cl)s1 (library stock concentration (final ~1000-fold dilution): 10 mM),IRF Lucia reporter activity,[1]; [4],1.05
same,IRF Lucia reporter activity,[1]; agonist: LPS (TLR4) 0.1 ug/mL,1.01
CNC(C)C(=O)NC(C(=O)N1CCCC1C(=O)NC(C(=O)NCCCCCCNC(=O)C(NC(=O)C1CCCN1C(=O)C(NC(=O)C(C)NC)C1CCCCC1)C(c1ccccc1)c1ccccc1)C(c1ccccc1)c1ccccc1)C1CCCCC1 (stereo not given) (library stock concentration (final ~1000-fold dilution): 10 mM),IRF Lucia reporter activity,[1]; [4],0.642
same,IRF Lucia reporter activity,[1]; agonist: LPS (TLR4) 0.1 ug/mL,0.589
O=C(CCCCCCC(=O)NO)NO (library stock concentration (final ~1000-fold dilution): 10 mM),IRF Lucia reporter activity,[1]; [4],0.237
same,IRF Lucia reporter activity,[1]; agonist: LPS (TLR4) 0.1 ug/mL,0.614
O=C(CCCCCCC(=O)NO)NO,IRF Lucia reporter activity,[2]; [5],0.725
FC(F)(F)c1ccc(CNc2ccc(Cc3c[nH]c4ncc(Cl)cc34)cn2)cn1 (library stock concentration (final ~1000-fold dilution): 10 mM),IRF Lucia reporter activity,[1]; [4],0.0689
same,IRF Lucia reporter activity,[1]; agonist: LPS (TLR4) 0.1 ug/mL,0.217
CCOC(=O)C(CCc1ccccc1)NC1CCc2ccccc2N(CC(=O)O)C1=O (stereo not given),IRF Lucia reporter activity,[2]; [5],1.04
CCOC(=O)C(CCc1ccccc1)NC1CCc2ccccc2N(CC(=O)O)C1=O (stereo not given) (library stock concentration (final ~1000-fold dilution): 10 mM),IRF Lucia reporter activity,[1]; [4],1.01
same,IRF Lucia reporter activity,[1]; agonist: LPS (TLR4) 0.1 ug/mL,0.636
O=C(C=Cc1ccc(O)cc1)c1ccc(O)cc1O (library stock concentration (final ~1000-fold dilution): 10 mM),IRF Lucia reporter activity,[1]; [4],0.252
same,IRF Lucia reporter activity,[1]; agonist: LPS (TLR4) 0.1 ug/mL,0.535
CN(C)CCCN1c2ccccc2Sc2ccc(Cl)cc21.Cl (library stock concentration (final ~1000-fold dilution): 10 mM),IRF Lucia reporter activity,[1]; [4],1.07
same,IRF Lucia reporter activity,[1]; agonist: LPS (TLR4) 0.1 ug/mL,1.51
CN(C)CCCN1c2ccccc2Sc2ccc(Cl)cc21.Cl,IRF Lucia reporter activity,[2]; [5],1.07
CN(C)c1ccc2nc3ccc(=[N+](C)C)cc-3sc2c1 (library stock concentration (final ~1000-fold dilution): 10 mM),IRF Lucia reporter activity,[3]; [4],0.441
same,IRF Lucia reporter activity,[3]; agonist: LPS (TLR4) 0.1 ug/mL,1.07
CN(C)c1ccc2nc3ccc(=[N+](C)C)cc-3sc2c1,IRF Lucia reporter activity,[2]; [6],0.725
